In the RNAGym collection of RNA variant scans (doi:10.1101/gad.245936.114):
Variants at the floor of the assay are shown more often than the library holds them.

B1: tRNA (parent)
chain: CUCUCGGUAGCCAAGUUGGUUUAAGGCGCAAGACUUUAAUUUAUCACUACGAAAUCUUGAGAUCGGGCGUUCGACUCGCCCCCGGGAGAUUUUUUCCUCGAGCAA

Variants of: B1
Assay: nonsense suppression (GFP-seq) (ratio to wild type); higher = more function; SUP4oc tRNA, yeast GFP reporter sort-seq
Outline: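 Each variant's nonsense suppression (GFPSEQ) is a cell-share-weighted bin median GFP/RFP relative to the unmutated parent tRNA. Yeast with genome-integrated tRNA variants from a ~3% random-mutation library, a galactose-driven GFP ochre reporter and RFP were grown in raffinose/galactose medium with 80 mg/L adenine, then sorted into GFP/RFP bins for Illumina sequencing. Variants needed ≥100 reads and ≥30 cells.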

| Variant | nonsense suppression |
| --- | --- |
| CUCUCGGUAGCCAAGUUGGUUUGAGGCGCAAGUCCUUAAUUUAUCACUACGAAAUCUUGAGAUCGGGCGUUCGACUCGCCCCCGGGAGAUUUUUUCCUCGAGCAA [A23G A33U U35C] | ≤ 0.026 |
| CUCUCGGUAGCCAAGUUGGUUUGAGGCGCAAGACUUUAAUUUAUCACUACGAAAUCUUGAGUUCGGGCGUUCGACUCGCCCGCUGGAGAUUUUUUCCUCGAGCAA [A23G A62U C82G G84U] | ≤ 0.026 |
| CUCUCGGUAGCCAAGUUGGUUUGAGGCGCAAGACUUUAAUUUAUCACUACGAACUAUUGAGAUCGGGUGUUCGACUCGCCCCCGGGAGAUUUUUUCCUCGAGCAA [A23G A54C C56A C68U] | ≤ 0.026 |
| CUCUCGGUAGCCAAGUUGGUUUGAGGCGCAAGACUUUAAUUUAUCACUACGAAAUCUUGGGAUCGGGCGUUCGACUCGCCCCCGGGAGAUUUUUUCCUCGAGCAA [A23G A60G] | 0.0474 |
| CUCUCGGUAGCCAAGUUGGUUUGAGGCGCAAGACUUUAAUUUAUCACUACGAAAUCUUGAGUUCGGGCGUUCGACUCGCCCCCGGGAGAUUUUUUCCUCGAGCAA [A23G A62U] | ≤ 0.026 |
| CUCUCGGUAGCCAAGUUGGUUUGAGGCGCAAGACUUUAAUUUAUCACUACGAAUUCUUGAGAUCGGGCGUUAGACUCGCCCCCGGGAGAUUUUUUCCUCGAGCAA [A23G A54U C72A] | ≤ 0.026 |
| CUCUCGGUAGCCAAGUUGGUUUGAGGCGCAAGGCUUUAAUUUAUCACUACGAAAUCUUGAGAUCGGGCGUUCGACUCGCCCCCGGGAGAUUUUUUCCUCGAGCAA [A23G A33G] | ≤ 0.026 |
| CUCUCGGUAGCCAAGUUGGUUUCAGUCGCAAGACUUUAAUUUAUCACUACGAAAUCUUGAGAUCGGGCGUUCGACUCGCCCCCGCGAGAUUUUUUCCUCGAGCAA [A23C G26U G85C] | ≤ 0.026 |
| CUCUCGGUAGCCAAGUUGGUUUGAGGCGCAAGACUUUAAUUUAUCACUACGAAGUCUUGAGAUCGGGCGUUCAACUCGCCCCCGGGAGAUUUUUUCCUCGAGCAA [A23G A54G G73A] | ≤ 0.026 |
| CUCUCGGUAGCCAAGUUGGUUUGAGGCGCACGACUUUAAUUUAUCACUACGAAAUCUUGGGAUCGGGCGUUCGACUCGCCCCCGGGAGAUUUUUUCCUCGAGCAA [A23G A31C A60G] | ≤ 0.026 |
| CUCUCGGUAGCCAAGUUGGUUUCAGGCGCAAGACUUUAAUUUAUCACUACGAAAUCUUGAGAUCAGGCGUUUGACUCGCCCCCGGGAGAUUUUUUCCUCGAGCAA [A23C G65A C72U] | ≤ 0.026 |
| CUCUCGGUAGCCAAGUUGGUUUCAGGCGCAAGACUUUAAUUUAUCACUACGAAACCUUGAGAUCGGGCGUUCGACUCGCCGCCAGGAGAUUUUUUCCUCGAGCAA [A23C U55C C81G G84A] | ≤ 0.026 |
| CUCUCGGUAGCCAAGUUGGUUUCAGGCGCAAGACUUUAAUUUAUCACUACGAAAUCUUGAGAUCGGGCGUUCGACUCGCCCCCAGGAGUUUUUUUCCUCGAGCAA [A23C G84A A89U] | ≤ 0.026 |
| CUCUCGGUAGCCAAGUUGGUUUCAGGCGCAAGACUUUAAUUUAUCACUACGAAAUCUUGAUAUCGGGCAGUCGACUCGCCCCCGGGAGAUUUUUUCCUCGAGCAA [A23C G61U G69A U70G] | ≤ 0.026 |
| CUCUCGGUAGCCAAGUUGGUUUGGGGCGCAAGACUUUAAUUUAUCACUACGAAAUCUUGAGAUAGGGCUUUCGACUCGUCCCCGGGAGAUUUUUUCCUCGAGCAA [A23G A24G C64A G69U C79U] | ≤ 0.026 |
| CUCUCGGUAGCCAAGUUGGUUUCAGGCGCAAUACUUUAAUUUAUCACUACGAAAUCUUGAGAUCGGGCGUUCGACUCGCCCCCGGGAGAUUUUUUCCUCGAGCAA [A23C G32U] | ≤ 0.026 |
| CUCUCGGUAGCCAAGUUGGUUUCAGGCGCAAGACUUUAAUUUAUCACUACGAAAUCUUGAGAUCGGGCGUUCGACGCGCCCCCGGGAAAUUUUUUCCUCGAGCAA [A23C U76G G88A] | ≤ 0.026 |
| CUCUCGGUAGCCAAGUUGGUUUGAGGCGCAAGACUUUAAUUUAUCACUACGAAAUCUUGAGCUCGGGCGUUCGACUCGCCGCCGGGAGAUUUUUUCCUCGAGCAA [A23G A62C C81G] | ≤ 0.026 |
| CUCUCGGUAGCCAAGUUGGUUUGAGGCGCAAGACUUUAAUUUAUCACUACGAAAUCUUGAGAUCGGGCGUUAGACUCGCCCCCGGGUGAUUUUUUCCUCGAGCAA [A23G C72A A87U] | ≤ 0.026 |
| CUCUCGGUAGCCAAGUUGGUUUCAGGCGCAAGACUUUAAUUUAUCACUACGAAAUCUUGAGAUCGGGCGUUCGACUGGCCCCCGGGAGAUUUUUUCCUCGAGCAA [A23C C77G] | ≤ 0.026 |
| CUCUCGGUAGCCAAGUUGGUUUCAGGCGCAAAACUUUAAUUUAUCACUACGAAAUCUUGAGAUCGGGCGUUCGAUUCGCCCCCGGGAGAUUUUUUCCUCGAGCAA [A23C G32A C75U] | ≤ 0.026 |
| CUCUCGGUAGCCAAGUUGGUUUGAGGCGCCAGACUUUAAUUUAUCACUACGAAAUCUUGAGAUCGGGCGUUCGACUCGCCCCCGGGAGAUUUUUUCCUCGAGCAA [A23G A30C] | ≤ 0.026 |
| CUCUCGGUAGCCAAGUUGGUUUGAGGCGCUAGACUUUAAUUUAUCACUACGAAAUCUUGAGAUCGGGCGUUCGACUCGCCCCCGGGAGAUUUUUUCCUCGAGCAA [A23G A30U] | 0.0397 |
| CUCUCGGUAGCCAAGUUGGUUUCAGGCGCAAGACUUUAAUUUAUCACUACGAAAUCUUUAGAUCGGGCGUUCGACUCGCCCCCGGGAGAUUUUUUCCUCGAGCAA [A23C G59U] | ≤ 0.026 |
| CUCUCGGUAGCCAAGUUGGUUUCAGGCGCAAGACUUUAAUUUAUCACUACGAAAUCUUGAGAUCGGUCGUUCGACUCGCCCCCGGGAGAUUUUUUCCUCGAGCAA [A23C G67U] | ≤ 0.026 |
| CUCUCGGUAGCCAAGUUGGUUUGAGGCGCAAGACUUUAAUUUAUCACUACGAAAUCUUGAGAUAGGGCGUUCGACUCGCCCCCAGGAGAUUUUUUCCUCGAGCAA [A23G C64A G84A] | ≤ 0.026 |
| CUCUCGGUAGCCAAGUUGGUUUCAGGCGCAAGACUUUAAUUUAUCACUACGAAAUCUUGAGAUCGGGCGUACGACUCGCCCCCGGGAGAUUUUUUCCUCGAGCAA [A23C U71A] | ≤ 0.026 |
